Assay results: patent US20110286916A1
Substitutions are numbered along the chain they refer to.

B1: WC-155 (antibody, human IgG1, lambda)
heavy: EVQLVQSGAEVKKPGASVKVSCKASGYNFTGYYMHWVRQAPGQGLEWMGWINPNSGGTNYAQKFQGRVTMTRDTSISTAYMELSRLRSDDTAVYYCATDSFDYWGRGTLVTVSSASTKGPSVFPLAPSSKSTSGGTAALGCLVKDYFPEPVTVSWNSGALTSGVHTFPAVLQSSGLYSLSSVVTVPSSSLGTQTYICNVNHKPSNTKVDKRV[human IgG1 Fc not spelt out]
light: QSVLTQPPSVSGAPGQRVTISCTGSSSNIGAGYDVLWYRQLPGTAPKLLIYGNTHRPSGVPDRFSGSNSGTSASLAITGLQAEDEADYYCQSYDSSLSGSVFGGGTKLTVLQPKANPTVTLFPPSSEELQANKATLVCLISDFYPGAVTVAWKADGSPVKAGVETTKPSKQSNNKYAASSYLSLTPEQWKSHRSYSCQVTHEGSTVEKTVAPTECS
B2: WC-159 (antibody, human IgG1, lambda)
heavy: QLQLVETGGGLVKPGESLTLSCAASGFTFSSYSMNWVRQAPGKGLEWVSSISSSGSSIYYADSLKGRFTISRDNAKNSLYLQMNSLRAEDTAVYYCTRGTQWLAGVGDYWGKGTLVTVSSASTKGPSVFPLAPSSKSTSGGTAALGCLVKDYFPEPVTVSWNSGALTSGVHTFPAVLQSSGLYSLSSVVTVPSSSLGTQTYICNVNHKPSNTKVDKRV[human IgG1 Fc not spelt out]
light: QSALTQPPSASASPGQSVTISCTGTSSDVGAYDSVSWYQQHPGKAPKLIIYDVNNRPSGVSNRFSGSESGNTASLTISGLQAEDEANYYCSSYRNTKTVVFGGGTKLTVLQPKANPTVTLFPPSSEELQANKATLVCLISDFYPGAVTVAWKADGSPVKAGVETTKPSKQSNNKYAASSYLSLTPEQWKSHRSYSCQVTHEGSTVEKTVAPTECS
B3: WC-97 (antibody, human IgG1, lambda)
heavy: B1 heavy with T69A, T91S, L109T
light: QSVLTQPPSVSGAPGQRVTISCTGTSSNIGAGYDVQWYQQLPGTAPKVLMYGNSNRPSGVPDRFSGSKSGTSASLAITGLQAEDEADYYCQSYDSSLSGSLFGTGTKVTVLQPKANPTVTLFPPSSEELQANKATLVCLISDFYPGAVTVAWKADGSPVKAGVETTKPSKQSNNKYAASSYLSLTPEQWKSHRSYSCQVTHEGSTVEKTVAPTECS
B4: WC-629 (antibody, human IgG1, lambda)
heavy: EVQLVQSGAEVKKPGSSVKVSCKASGGTLSSYTVSWLRQAPGQGLEWMGRIIPILDRANYAQKFQGRVTITADKSTSTAYMELNSLRSDDTAVYYCARSIGAAGDGVWFDPWGQGTMVTVSSASTKGPSVFPLAPSSKSTSGGTAALGCLVKDYFPEPVTVSWNSGALTSGVHTFPAVLQSSGLYSLSSVVTVPSSSLGTQTYICNVNHKPSNTKVDKRV[human IgG1 Fc not spelt out]
light: QAVLTQPSSVSGAPGQRVTISCTGSSSNIGAGYDVHWYQQLPGTAPKLLIFDNKNRPSGVPDRFSGSNSGTSASLAITGLQAEDEAEYYCQSYDNNLSGRVFGGGTKLTVLQPKANPTVTLFPPSSEELQANKATLVCLISDFYPGAVTVAWKADGSPVKAGVETTKPSKQSNNKYAASSYLSLTPEQWKSHRSYSCQVTHEGSTVEKTVAPTECS
B5: WC-613 (antibody, human IgG1, lambda)
heavy: [about 100 residues not spelt out][about 120 residues not spelt out][human IgG1 Fc not spelt out]
light: SYELTQPPSASGTPGQRVTISCSGSYSNIGSNYVYWYQQLPGTAPKLLIYTNNQRPSGVPDRFSGSKSGTSASLVISGLRSDDEGDYYCAAWDDSVSVLLFGGGTKVTVLQPKANPTVTLFPPSSEELQANKATLVCLISDFYPGAVTVAWKADGSPVKAGVETTKPSKQSNNKYAASSYLSLTPEQWKSHRSYSCQVTHEGSTVEKTVAPTECS
B6: S3-009 (antibody, human IgG1, lambda)
heavy: B1 heavy with R106Q, L109M
light: SYVLTQPPSVSEAPRQRVTISCSGSSSNIGNNAVSWYQQLPGKAPKTLIYYDDLLSSGVSDRFSGSRSGTSASLAISGLQSEDEADYYCAAWDDSLNGVVFGGGTKLTVLQPKANPTVTLFPPSSEELQANKATLVCLISDFYPGAVTVAWKADGSPVKAGVETTKPSKQSNNKYAASSYLSLTPEQWKSHRSYSCQVTHEGSTVEKTVAPTECS
B7: A2780-C2-16 (antibody, human IgG1, lambda)
heavy: EVQLVQSGAEVKKPGSSVKVSCKASGGTFSSFAFSWVRQAPGQGLDWMGRIIPILGRTNYAQKFQGRVTFTADTSTSTVYMELSSLSSEDTAVYYCARDREYSLSLGGSDYWGQGTLVTVSSASTKGPSVFPLAPSSKSTSGGTAALGCLVKDYFPEPVTVSWNSGALTSGVHTFPAVLQSSGLYSLSSVVTVPSSSLGTQTYICNVNHKPSNTKVDKRV[human IgG1 Fc not spelt out]
light: QAVLTQPSSVSGAPGQRVTISCIGSSSNIGAGYDVHWYRQPPGTAPQLLIYANTNRPSGVPDRFSGSRSGTSASLAITGIQAEDEADYYCQSYDSSLSGRVFGGGTKVTVLGQPKAAPSVTLFPPSSEELQANKATLVCLISDFYPGAVTVAWKADSSPVKAGVETTTPSKQSNNKYAASSYLSLTPEQWKSHRSYSCQVTHEGSTVEKTVAPTECS
B8: FL-JEG3-C2-11 (antibody, human IgG1, lambda)
heavy: EVQLQLVETGGGLVQPVGSLRLSCAASGFSFDNYAMSWVRQAPGKGLEWVSSISGSGGQIFYADSVKGRFTISRDNAKNTLVLQMNSLRVDDTAVYYCARDFYRTPGYNTNWGYWGRGTMVTVSSASTKGPSVFPLAPSSKSTSGGTAALGCLVKDYFPEPVTVSWNSGALTSGVHTFPAVLQSSGLYSLSSVVTVPSSSLGTQTYICNVNHKPSNTKVDKRV[human IgG1 Fc not spelt out]
light: SYVLTQPPSVSVSPGETASISCSGDGLGNKYVAWYQQKPGQSPVLVIQQDSKRPSGIPERFSGSNSGDTATLTISGTQSLDEGDYYCQAWDRPAVIFGGGTKLTVLGQPKAAPSVTLFPPSSEELQANKATLVCLISDFYPGAVTVAWKADSSPVKAGVETTTPSKQSNNKYAASSYLSLTPEQWKSHRSYSCQVTHEGSTVEKTVAPTECS
B9: FL-SKNAS-C2-384 (antibody, human IgG1, lambda)
heavy: EVQLVQSGAEVKKPGSSVKVSCKASGGTLSSSAISWVRQAPGEGLEWMGGIIPMFDSTNYAQKFQGRVTITADESTSTAFMELSSLRSDDTAVYYCGRDPYYDRLSGGGYMDVWGQGTLVTVSSASTKGPSVFPLAPSSKSTSGGTAALGCLVKDYFPEPVTVSWNSGALTSGVHTFPAVLQSSGLYSLSSVVTVPSSSLGTQTYICNVNHKPSNTKVDKRV[human IgG1 Fc not spelt out]
light: SYVLTQPPSVSGALRQTATVTCTGNSSNVGNQGAAWLRQHQGRPPKLLSYRNNDRPSGVSQRFSASTSGNTASLTITGLQSEDEADYFCSAWDSSRSGWVFGGGTKLTVLGQPKAAPSVTLFPPSSEELQANKATLVCLISDFYPGAVTVAWKADSSPVKAGVETTTPSKQSNNKYAASSYLSLTPEQWKSHRSYSCQVTHEGSTVEKTVAPTECS
B10: FL-SKNAS-C2-514 (antibody, human IgG1, lambda)
heavy: EVQLVQSGAEVKEPGESLRISCKASGYDFSNYWIAWVRQMPGKGLEWMGIIYPGDSDTRYSPSFQGQVTISVDRSISTAYLQWSSLKASDTALYYCSRPTYWSTTWGREFDYWGQGTLVTVSSASTKGPSVFPLAPSSKSTSGGTAALGCLVKDYFPEPVTVSWNSGALTSGVHTFPAVLQSSGLYSLSSVVTVPSSSLGTQTYICNVNHKPSNTKVDKRV[human IgG1 Fc not spelt out]
light: SYELTQPPSVSVSPGQTATITCSGDALPKKYAYWYQQKSGQAPVLVVYEDSKRPSGIPERFSGSSSGTMATLTISGAQVEDEADYYCYSTDSSGNHWVFGGGTKLTVLGQPKAAPSVTLFPPSSEELQANKATLVCLISDFYPGAVTVAWKADSSPVKAGVETTTPSKQSNNKYAASSYLSLTPEQWKSHRSYSCQVTHEGSTVEKTVAPTECS
B11: FL-SKNAS-D2-268 (antibody, human IgG1, lambda)
heavy: [about 100 residues not spelt out]HGHSSGYFVYWGKGTMVTVSSASTKGPSVFPLAPSSKSTSGGTAALGCLVKDYFPEPVTVSWNSGALTSGVHTFPAVLQSSGLYSLSSVVTVPSSSLGTQTYICNVNHKPSNTKVDKRV[human IgG1 Fc not spelt out]
light: QAVLTQPSSVSGAPGQRVTISCTGTSSNIGAPYDVNWYQQLPGIAPKLLISGNTNRPSGVPDRFSGSKSGASASLAITGLQADDEADYYCQSYDHSLSGWVFGGGTKVTVLGQPKAAPSVTLFPPSSEELQANKATLVCLISDFYPGAVTVAWKADSSPVKAGVETTTPSKQSNNKYAASSYLSLTPEQWKSHRSYSCQVTHEGSTVEKTVAPTECS
B12: A673-C2-110 (antibody, human IgG1, lambda)
heavy: QVQLVQSGTEVKKPGASVRVSCKPSADTFTSYYVHWVRQAPGQGLEWMGTINPTGTYTRYAQQFQGRVTVTRDTSTSSVYMELSSLRSEDSAVYYCARDVRPYTAMYSFDNWGRGTTVTVSSASTKGPSVFPLAPSSKSTSGGTAALGCLVKDYFPEPVTVSWNSGALTSGVHTFPAVLQSSGLYSLSSVVTVPSSSLGTQTYICNVNHKPSNTKVDKRV[human IgG1 Fc not spelt out]
light: SYVLTQPPSVSVSPGQTATITCSGDALPKQYANWYQQKPGQAPVLMIYKDSDRPSGIPERFSGSSSGTKATLTISGVQAEDEADYYCQSADNSGTNYVFGTGTKLTVLGQPKAAPSVTLFPPSSEELQANKATLVCLISDFYPGAVTVAWKADSSPVKAGVETTTPSKQSNNKYAASSYLSLTPEQWKSHRSYSCQVTHEGSTVEKTVAPTECS

What was measured:
[1] = target: human Notch1-Gal4 chimeric receptor on U2OS FlpIn TREx cells (human), P46531; test: cell-based or functional assay
[2] = target: human Notch2-Gal4 chimeric receptor on U2OS FlpIn TREx cells (human), Q04721; test: cell-based or functional assay
Sequence of human Notch2-Gal4 chimeric receptor on U2OS FlpIn TREx cells (human), Q04721 (Q04721 26-2471, change not shown): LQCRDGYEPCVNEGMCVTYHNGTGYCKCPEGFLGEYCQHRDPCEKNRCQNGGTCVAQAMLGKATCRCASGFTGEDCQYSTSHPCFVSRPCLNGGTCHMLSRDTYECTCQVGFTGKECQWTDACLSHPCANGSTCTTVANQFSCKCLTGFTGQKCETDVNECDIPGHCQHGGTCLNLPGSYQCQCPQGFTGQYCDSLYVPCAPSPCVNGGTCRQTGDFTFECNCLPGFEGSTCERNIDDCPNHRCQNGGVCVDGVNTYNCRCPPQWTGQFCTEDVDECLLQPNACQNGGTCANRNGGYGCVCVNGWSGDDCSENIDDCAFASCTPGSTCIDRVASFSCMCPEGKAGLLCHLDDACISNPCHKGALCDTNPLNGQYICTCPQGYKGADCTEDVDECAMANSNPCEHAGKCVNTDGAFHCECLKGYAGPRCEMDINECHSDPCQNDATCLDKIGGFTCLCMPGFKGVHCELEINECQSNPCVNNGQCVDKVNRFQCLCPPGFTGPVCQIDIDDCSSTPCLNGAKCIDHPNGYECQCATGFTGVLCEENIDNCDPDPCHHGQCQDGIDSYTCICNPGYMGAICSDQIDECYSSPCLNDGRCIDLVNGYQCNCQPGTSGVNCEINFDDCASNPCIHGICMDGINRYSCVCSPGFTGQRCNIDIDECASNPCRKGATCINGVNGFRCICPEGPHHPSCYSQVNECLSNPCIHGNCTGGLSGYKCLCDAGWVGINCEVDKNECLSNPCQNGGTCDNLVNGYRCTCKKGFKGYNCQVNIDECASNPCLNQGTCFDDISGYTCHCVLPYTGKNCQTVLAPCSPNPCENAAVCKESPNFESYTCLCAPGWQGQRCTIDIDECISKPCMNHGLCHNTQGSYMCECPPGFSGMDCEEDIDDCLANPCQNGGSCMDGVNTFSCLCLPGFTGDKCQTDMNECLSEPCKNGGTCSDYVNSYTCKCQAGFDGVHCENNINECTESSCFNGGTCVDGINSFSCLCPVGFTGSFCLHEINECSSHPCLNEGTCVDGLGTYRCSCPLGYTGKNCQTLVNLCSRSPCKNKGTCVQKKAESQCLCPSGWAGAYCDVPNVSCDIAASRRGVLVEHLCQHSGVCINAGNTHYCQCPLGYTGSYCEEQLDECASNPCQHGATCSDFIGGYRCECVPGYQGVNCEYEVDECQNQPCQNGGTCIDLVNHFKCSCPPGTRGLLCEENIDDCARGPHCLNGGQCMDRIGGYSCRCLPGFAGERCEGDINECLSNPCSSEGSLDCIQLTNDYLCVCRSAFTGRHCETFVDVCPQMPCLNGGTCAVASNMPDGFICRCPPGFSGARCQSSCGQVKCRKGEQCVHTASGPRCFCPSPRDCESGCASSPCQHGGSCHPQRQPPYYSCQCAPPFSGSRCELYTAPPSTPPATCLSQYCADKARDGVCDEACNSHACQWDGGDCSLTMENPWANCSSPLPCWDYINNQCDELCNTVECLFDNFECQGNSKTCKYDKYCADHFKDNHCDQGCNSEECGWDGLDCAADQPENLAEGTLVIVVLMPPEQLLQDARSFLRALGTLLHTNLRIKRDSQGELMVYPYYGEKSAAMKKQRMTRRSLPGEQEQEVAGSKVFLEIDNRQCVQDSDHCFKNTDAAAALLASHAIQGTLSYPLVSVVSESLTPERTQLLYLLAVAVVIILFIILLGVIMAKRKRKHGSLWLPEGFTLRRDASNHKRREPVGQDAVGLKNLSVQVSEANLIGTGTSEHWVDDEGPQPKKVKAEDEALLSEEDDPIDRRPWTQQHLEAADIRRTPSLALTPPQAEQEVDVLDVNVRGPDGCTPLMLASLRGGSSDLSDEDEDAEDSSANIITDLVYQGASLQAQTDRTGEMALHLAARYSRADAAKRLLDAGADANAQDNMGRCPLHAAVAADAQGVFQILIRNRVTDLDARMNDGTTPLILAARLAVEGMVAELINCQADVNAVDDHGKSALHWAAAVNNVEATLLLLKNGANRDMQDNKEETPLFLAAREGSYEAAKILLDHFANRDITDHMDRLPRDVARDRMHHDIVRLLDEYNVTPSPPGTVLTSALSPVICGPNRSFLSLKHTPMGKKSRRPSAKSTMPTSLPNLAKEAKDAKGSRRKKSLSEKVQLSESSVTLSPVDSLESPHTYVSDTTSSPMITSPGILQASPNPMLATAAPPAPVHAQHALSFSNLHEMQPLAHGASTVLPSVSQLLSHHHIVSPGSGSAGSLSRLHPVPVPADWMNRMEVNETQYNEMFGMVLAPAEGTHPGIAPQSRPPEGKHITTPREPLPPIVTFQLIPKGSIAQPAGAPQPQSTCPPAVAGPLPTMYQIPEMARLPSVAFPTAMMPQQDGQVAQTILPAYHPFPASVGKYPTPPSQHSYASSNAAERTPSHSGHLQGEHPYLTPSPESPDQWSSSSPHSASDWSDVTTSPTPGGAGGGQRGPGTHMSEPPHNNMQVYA

Row | Binder | hN1 (IC50, nM), Jag2-induced Notch1-Gal4 luciferase reporter [1] [nM] | hN2, inhibition of Luc activity at [166 nM] Mab [2] [%] | hN1 (IC50, nM), reporter assay [1] [nM]
1 | B1 | 61 | < 10 | –
2 | B2 | 147 | < 10 | –
3 | B3 | 152 | < 10 | –
4 | B4 | 2.1 | < 10 | –
5 | B5 | 3.9 | < 10 | –
6 | B6 | 12 | < 10 | –
7 | B7 | – | < 15 | 0.583
8 | B8 | – | < 5 | 0.299
9 | B9 | – | < 5 | > 333
10 | B10 | – | < 5 | > 333
11 | B11 | – | < 5 | > 333
12 | B12 | – | < 15 | > 333
